Sequences with one replicate were seen in a single cluster, so their values are uncertain.
System: ATP
Assay: switch fluorescence ratio, 500 uM ATP over buffer (Cy3 cluster intensity, sum of 5 cycles each) (fold (ratio)); higher = stronger signal-on switching upon ATP binding; sequences stand for … in TCGTCGGCAGCGTCAGATGTGTATAAGAGACAGTTTTTTTTTTTTTTTTTTTTTTTTT…TC
Details: aptamer strand: ATP DNA aptamer (quencher-CACCTGGGGGAGTATTGCGGAGGAAGG + anchor), 100 nM annealed; ATP concentration: 500 uM; one replicate
How it was run: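 Clusters carrying Cy3-labelled switching strands on a modified Illumina MiSeq flow-cell were annealed to 100 nM quencher-labelled ATP aptamer and imaged in selection buffer. They were imaged again after 15 min with 500 uM ATP at 22 °C, over five buffer/ATP cycles with NaOH stripping and re-annealing in between. For each cluster, the fluorescence ratio is the summed Cy3 intensity of the target cycles divided by that of the buffer cycles, averaged per switch-domain sequence. Clusters outside 100-1000 RFU were left out.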
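Note: ATP exposure 15 min at 22 °C before imaging.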

Row | Sequence | switch fluorescence ratio
1 | ATGGCTGCGT | 0.952
2 | AAGAGAAATT | 0.956
3 | TTACAATCGG | 1.01
4 | GTGGTTCTCA | 1.01
5 | GGGACAATAA | 1.07
6 | ATGTCCTTTC | 1.23
7 | ATGGGAGCGG | 1
8 | CGGGTTCCGC | 1.02
9 | CTGTGTGGAA | 0.999
10 | CAGCACTTGA | 1.07
11 | AAAATTCCG | 1.05
12 | TTTACCGTAA | 1.26
13 | GGTCGGAGCA | 1.02
14 | CGGGTATTAC | 1.12
15 | GGTATAGCTG | 1.02
16 | GCCTATATA | 1
17 | GTATATTATT | 1.05
18 | GTCTTATGCA | 0.993
19 | ATAAGCCCAG | 1.06
20 | TCAATATGGA | 0.962
21 | AAGACTAGAT | 1.03
22 | ACCCCTGTGC | 1.87
23 | GCACCACTTC | 0.978
24 | TAGCAAGAGA | 0.998
25 | GCGGGGTGAC | 1.08
26 | CGGACGGGT | 0.99

Row | Sequence | switch fluorescence ratio
27 | GTTCAAGTTG | 1.01
28 | CAGTTCACTG | 1.05
29 | TCCTGTTGTC | 0.982
30 | CAGAGCGAAT | 1.18
31 | TGGATGGGTG | 0.99
32 | GTGCGGAGTA | 1.01
33 | CCCCGTCGTA | 1
34 | AGCGTATCGT | 0.975
35 | ATCAGCGGGG | 0.981
36 | GCTAAATCAA | 1.03
37 | TTGCCTGGGA | 1.02
38 | GTGAGGGTCT | 0.998
39 | TATAAGCAGA | 1.05
40 | TAGGTAGTT | 0.995
41 | TTCAAAGTAG | 1.04
42 | CTAGAGCACA | 2.03
43 | TTCCCGGGG | 1.28
44 | ACAGGGTCT | 1.03
45 | CCTTCGGAAG | 1.76
46 | GGCGACAAGT | 0.972
47 | ACACGGTGTA | 1.03
48 | GAATAGGCTG | 0.987
49 | AGATAGAGGA | 0.949
50 | AAATCGTT | 1.03
51 | TAGGAGGTAG | 0.996
52 | AATTAGTTA | 1.02

Row | Sequence | switch fluorescence ratio
53 | ATACCCGGGA | 1.08
54 | GTCTAGGGGT | 1.19
55 | GATTGACTTT | 1.08
56 | GTGACAGGAT | 0.977
57 | CCAGAAAAAG | 1.01
58 | GCGGCCTGCA | 1.04
59 | GTGTGCCGAG | 0.964
60 | GTGGTAGCTG | 1.05
61 | TGACAAAAG | 0.985
62 | CAAAGATATG | 1.05
63 | CAGGAAATGT | 1.03
64 | GCAGGAGTTC | 1
65 | TGCCGCCCGA | 1.09
66 | ATCTTGGGCG | 0.982
67 | CGGCAGAGCC | 1.03
68 | AGTCTATGAA | 0.975
69 | CTTAGGTTCT | 0.986
70 | AGAGCTAAAC | 1.14
71 | CCCCTGTGCG | 1.29
72 | CAATATCTG | 1.01
73 | TATAGGGATC | 1.02
74 | GATTAAACCA | 1.05
75 | CCATAGTCAG | 1.23
76 | TTATTACGAG | 1.01
77 | CAAAATCGTA | 0.999
78 | TATCGTTAG | 0.966

Row | Sequence | switch fluorescence ratio
79 | GACATAAGAC | 1.45
80 | CCCAGCGAGC | 1.13
81 | GCAGGCCTAG | 1.04
82 | GCCAAATGCG | 0.995
83 | TGGCGAAAGT | 0.991
84 | CGCGACCCTG | 1.04
85 | ATCCATCGCC | 1.07
86 | CCGGGAATGC | 3.78
87 | GCAATATAAG | 1.12
88 | AACGATGGAC | 1.09
89 | CGCACGTGTA | 1.02
90 | CTCAATGTGG | 0.979
91 | GCAAATACTG | 1.6
92 | TTCATAAGTG | 1
93 | CACAGTACAC | 1.51
94 | TTATATAGGA | 0.996
95 | GCGCTGAGGT | 0.963
96 | AAGGTACTCG | 1
97 | ATATAACGGA | 1.01
98 | CCCCGAGCCC | 1.33
99 | CTCTTTGCCG | 0.94
100 | TCGCTAGTTT | 0.991
101 | CTAGTGCAGG | 1
102 | GGGGTAGCCG | 0.993
103 | ACGTTTTG | 0.981
104 | GCCCCGTTAC | 3.18

Row | Sequence | switch fluorescence ratio
105 | TTTTAGCGAT | 1.05
106 | CTATAGCCTG | 0.975
107 | ATCAGCTTAT | 2.5
108 | GAGTAAGCG | 0.967
109 | AATGTTGTA | 1
110 | TGAACAGATG | 0.985
111 | CCGCGGCCTT | 1.17
112 | TAGTGCGGGT | 0.977
113 | CCTGTGGTGG | 1.02
114 | CCGGCATCTC | 1.96
115 | TCGAATAGGG | 1.02
116 | TGCGAGCCGG | 0.979
117 | GCTATCACTC | 1.24
118 | ATCTTTGGT | 0.967
119 | GGAGCCTAAA | 0.996
120 | GGGCGATAAG | 0.984
121 | CAAATGGACA | 0.983
122 | AACAACACTC | 1.22
123 | TTTGTACGTG | 1.05
124 | GTGGGAGTTA | 0.981
125 | GCATAAACGA | 1.17
126 | CGTAGCTCCT | 1.04
127 | CACAAGCGGC | 1.06
128 | GGTCTTGCTC | 1.02
129 | ACTTAACGGG | 1.2
130 | GGCGGTGGGA | 0.987

Row | Sequence | switch fluorescence ratio
131 | GCTCTGCAGG | 1.43
132 | GCCTGTGGAA | 1.05
133 | TGGTCGTTTG | 0.997
134 | AATTTGGTAG | 0.954
135 | CCAGGACTTT | 1.02
136 | CGCTAAATTA | 1.03
137 | CGAGGGCATC | 1.07
138 | GGACAAAAGG | 0.956
139 | ATCTCATAGC | 0.966
140 | AAGGCGTGCC | 0.991
141 | TCGGAAAGAT | 0.977
142 | AAGGTAAAGG | 0.99
143 | CGCCTTGTGC | 1.05
144 | CAACCGTCGA | 1.32
145 | TTATCATGAC | 1.03
146 | GCCAAATATT | 1.01
147 | CGCGGCCAGC | 0.967
148 | CGATACACCT | 1.3
149 | CTTAGTGCTA | 1.03
150 | GATTTTATGC | 1.1
151 | AGCACGGCAA | 1.21
152 | GGATCGTTCT | 0.983
153 | GCAAGATGTA | 0.999
154 | CAAGACGTGT | 0.979
155 | GTAGCGTGAC | 2
156 | CCGTTATGGT | 1.02

Row | Sequence | switch fluorescence ratio
157 | CACACAACCC | 1.09
158 | TCTAACTATT | 0.961
159 | TGACTCTAAG | 0.995
160 | AGGAGGTGAC | 0.909
161 | AGGGCTTGGG | 0.964
162 | GTTCTACAAA | 1.05
163 | TCTGGTCACG | 0.964
164 | GGGATTCGGT | 1.01
165 | TGGAACGGGG | 0.999
166 | CGTATTCAGC | 1.01
167 | AGTCCAGGCG | 1.03
168 | AACCTGGTA | 1.03
169 | CCAAGCGCTA | 1.38
170 | ATACCGGTGG | 1.27
171 | CGAGATTGTA | 0.969
172 | ATCTTCCATG | 1.46
173 | CCACCGGTTC | 1.41
174 | ATCCTATCCG | 1
175 | TTGCCCGCAC | 2.86
176 | GGACCGCTA | 1.13
177 | CCTGTCAAAT | 1.12
178 | CCATTACT | 1.04
179 | TTACTCTCCG | 1.14
180 | TCACATTGCT | 1.01
181 | GTTCTCGGGA | 1.01
182 | GAACAACCCT | 1.07

Row | Sequence | switch fluorescence ratio
183 | TGTTCGCGCG | 0.99
184 | TTCCTCAGCT | 2.64
185 | TTACTCCGAC | 4.77
186 | AGCAGCGATG | 0.964
187 | AACTTAGACA | 1.02
188 | CCTCGTAAAG | 1.88
189 | ACAGGATCAT | 1.04
190 | CTCTTTCCCC | 1.03
191 | AATGCAGACG | 1.1
192 | AGCCTTGCCC | 0.969
193 | GACATTCATA | 0.996
194 | GCCGTCCATA | 1
195 | TGACAAAGGT | 0.991
196 | AAAGACAACC | 1.13
197 | GAAAGCCCGC | 1.03
198 | TCCGGTAGTA | 1.04
199 | AGACGGTCTA | 1.02
200 | ACTGAATGAT | 0.972
201 | ATATGATGCT | 0.996

Reference: the supplement of paper PMC10126150
